Measured values reported in PubChem BioAssay AID1345082 (National Center for Advancing Translational Sciences (NCATS), 2018).
In all, about 94,000 compounds went through this assay and about 4,000 (4.3%) were called active. This list was built around the results that the source calls inconclusive (neither active nor inactive); the mix of calls is not that of the screen. Calls come from the whole dose curve; as a rule, active = well fitted inhibition curve with a large enough effect; inconclusive = small, poorly fitted or top-dose-only effect; inactive = no such curve, though single readings can be large or run the other way. A potency beside an inconclusive call is a rough fit, not a confirmed value.

test: Cytotoxic Profiling in NIH 3T3 Cell Line of Diverse Libraries Using Quantitative High-Throughput Screening; conditions: NIH 3T3 viability, CellTiter-Glo ATP luminescence, 48-72 h; series mostly up to 96.7 µM; note: nearly all actives have a fitted effect of over 55% in size
Summary of the method: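 Mouse fibroblast NIH 3T3 cells, 400 per well, received compound via pintool and were incubated for 48 or 72 hr prior to CellTiter-Glo ATP luminescence measurement.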
Potency is the fitted concentration of half-maximal effect; tags give direction and shape of the fitted curve.

| Structure (SMILES) | Potency |
| --- | --- |
| CNC(=O)CCn1ncc2cc(OC3CCc4cccc(-c5cnn(C)c5)c43)ccc21 (stereo not drawn) | inconclusive: 89.1 µM [inhibitor, partial curve] |
| COCC(=O)NC1CCN(c2ccccc2)C1=O (stereo not drawn) | inactive |
| COc1ccc(-c2[nH]nc3ncc(-c4ccc(F)cc4OC)nc23)c(C)c1 | inconclusive: 50.1 µM [inhibitor, partial curve, poor fit] |
| CCc1ccccc1Nc1nc(-c2cccc(OC)c2OC)no1 | inconclusive: 70.8 µM [inhibitor, single point] |
| Cc1ccccc1C(=O)N1CCC(C(=O)N2CCC(c3nc4ncccc4[nH]3)CC2)CC1 | inactive |
| Cc1ccc(NC(=O)Cn2c(-c3ccccc3)nc(C)cc2=O)cc1 | inconclusive: 10 µM [inhibitor, full curve] |
| COCCOCc1nc(C2CCCN2C(=O)NCc2ccc(OC)cc2)no1 (stereo not drawn) | inactive |
| COc1ccccc1CC(=O)N1CCCc2ncc(C(=O)NCCC(C)C)cc21 | inconclusive: 79.4 µM [inhibitor, partial curve, poor fit] |
| CC1(C)[C@H](Cc2cc(-c3ccc(F)cc3)on2)C[C@@H]1NCc1cccnc1 | inconclusive: 39.8 µM [inhibitor, partial curve, poor fit] |
| OCC1(CN2CCCC2)CCN(Cc2c(Cl)cccc2Cl)CC1 | inconclusive: 89.1 µM [inhibitor, single point] |
| COc1ccc(OC)c2nc(-c3cccc(Cl)c3)c(CN3CCCC(O)C3)cc12 (stereo not drawn) | inconclusive: 17.8 µM [inhibitor, full curve, poor fit] |
| Cc1cc(S(=O)(=O)N2CCC(Oc3ccc(C(N)=O)cn3)CC2)ccc1Cl | inconclusive: 44.7 µM [inhibitor, partial curve, poor fit] |
| O=C(Nc1cccc(-c2nnc3n2CCCC3)c1)C1CC1 | inactive |
| O=C(NC1CCN(c2cc(-c3ccc(F)cc3)[nH]n2)C1)c1ccccc1F (stereo not drawn) | inactive |
| CC(=O)Nc1ccc(CN2CCOC[C@H]2c2ncc(-c3ccc(F)cc3F)[nH]2)cc1 | inconclusive: 89.1 µM [inhibitor, partial curve, poor fit] |
| O=C(NC1CCCC1)c1cc2n(n1)CC(c1ccc3c(c1)OCO3)OC2 (stereo not drawn) | inconclusive: 50.1 µM [inhibitor, partial curve, poor fit] |
| N#Cc1ccc(C(=O)N2CCC3(CC2)CN(c2cccc(F)c2)C3c2ccccc2)cc1 (stereo not drawn) | inconclusive: 14.1 µM [inhibitor, partial curve, poor fit] |
| C[C@H]1[C@@H]2[C@@H](O)C([C@H](C)C(=O)NC3CCCCC3)CC[C@@]2(C)CC[C@@H]1NC(=O)c1ccccn1 (stereo partly drawn) | inconclusive: 39.8 µM [inhibitor, full curve, poor fit] |
| Cc1ccc(CN2CCc3c(cc(C(=O)N4CCCN(C)CC4)n3C)C2)cc1 | inconclusive: 44.7 µM [inhibitor, partial curve, poor fit] |
| CC1=C[C@@H](CNC(=O)C2CC2)[C@H](C(C)C)C[C@H]1Cc1nc2ccccc2n1C | active: 100 µM |
| O=C(NCc1ccccc1)c1nc2c(o1)CCN(Cc1ccc(F)cc1)CC2 | inconclusive: 56.2 µM [inhibitor, partial curve, poor fit] |

| Structure (SMILES) | Potency |
| --- | --- |
| O=C1Nc2ccc(-c3cccc(C(F)(F)F)c3)cc2C(=O)N2CCN(C(=O)c3cccc(F)c3)C[C@H]12 | inconclusive: 56.2 µM [inhibitor, partial curve, poor fit] |
| COc1cccc(CN2CCOC3(CCN([S+](=O)([O-])c4cccnc4)CC3)C2=O)c1 | inconclusive: 3.98 µM [inhibitor, full curve, poor fit] |
| Cc1noc(-c2cccs2)c1C(=O)N1CCC(Cc2ccccc2)CC1 | inconclusive: 44.7 µM [inhibitor, partial curve, poor fit] |
| O=C1OCC2=C1C(c1ccc(Cl)cc1)NC(=O)N2CC(=O)N1CCC(Cc2ccccc2)CC1 (stereo not drawn) | inconclusive: 11.2 µM [inhibitor, full curve, poor fit] |
| O=C(c1ccc2sccc2c1)N1CCN(Cc2ccc3c(c2)OCO3)CC1 | inconclusive: 44.7 µM [inhibitor, partial curve, poor fit] |
| COc1cccc(N2CCN(c3nc(C(=O)NCc4cccnc4)cs3)CC2)c1 | inconclusive: 44.7 µM [inhibitor, partial curve, poor fit] |
| Cc1cc(C)cc(-c2ccc(CN3CCCC3C(=O)Nc3ccc(F)cc3)cc2)c1 (stereo not drawn) | inconclusive: 50.1 µM [inhibitor, partial curve, poor fit] |
| O=C(NC1CCN(c2nc3ncccc3o2)C1)C1CCCC1 (stereo not drawn) | inactive |
| COc1ccc(CNC(=O)c2cc(-c3ccc(F)cc3)nc3c2cnn3C)cc1 | active: 39.8 µM |
| N#CC1CCN(C(=O)c2nc3cccnc3n(Cc3ccccc3)c2=O)CC1 | inactive |
| Cc1cc(=O)n(CC(=O)Nc2cccc(Cl)c2)c(N(C)Cc2ccccc2)n1 | inconclusive: 11.2 µM [inhibitor, full curve, poor fit] |
| CNC(=O)c1cc2cc(-c3c(C)noc3C)nc(-c3cccnc3OC)c2o1 | inconclusive: 25.1 µM [inhibitor, full curve] |
| C[S+](=O)([O-])N1CC2(CCCN(CC3CCCCC3)C2)Cc2ccccc21 (stereo not drawn) | inconclusive: 56.2 µM [inhibitor, partial curve, poor fit] |
| COc1ccc(Cl)cc1-c1ccc2c(c1)C(=O)N1CCN(C(=O)[C@@H](O)c3ccccc3)C[C@H]1C(=O)N2 | inconclusive: 63.1 µM [inhibitor, partial curve, poor fit] |
| C=CCOc1c(OC)ccc2c1CN(Cc1ccco1)C(=O)CCN2CC(O)COC(C)(C)C (stereo not drawn) | inconclusive: 70.8 µM [inhibitor, single point] |
| O=C(NCc1ccccc1)c1cnc2n1CCN(Cc1cccc(O)c1)CC2 | inconclusive: 100 µM [inhibitor, partial curve, poor fit] |
| CCOc1cc(CN2CCCC(COc3ccccc3C(=O)N3CCCC3)C2)ccc1O (stereo not drawn) | inactive |
| Cc1nc2cc(N3CCCC(C(=O)NCc4ccc(N(C)C)cc4)C3)cnc2nc1C (stereo not drawn) | inactive |
| COCCN1Cc2ccc(NCc3ccccc3)nc2C(C)(C(=O)N(C)CCOC)C1 (stereo not drawn) | inconclusive: 56.2 µM [inhibitor, partial curve, poor fit] |
| CCOc1cc(=O)n2c(c1C(=O)N1CCN(c3ccc(F)cc3)CC1)CCCC2 | inactive |
| O=C(NCCc1ccc(Cl)cc1)c1ccc2nnc(C3CC3)n2c1 | inconclusive: 44.7 µM [inhibitor, partial curve, poor fit] |

| Structure (SMILES) | Potency |
| --- | --- |
| COc1ccc(NC(=O)[C@@H]2C[C@@H](c3cccc(C(F)(F)F)c3)N(C)C2)cc1 | inconclusive: 56.2 µM [inhibitor, partial curve, poor fit] |
| Cc1ccc2nc3n(c2c1)[C@@H](CNC1CCOCC1)COC3 | inactive |
| COC[C@@H]1[C@H](C(=O)NCc2ccc(C)o2)CCCN1C | inconclusive: 50.1 µM [inhibitor, partial curve, poor fit] |
| O=C1NC2(CCN(C(=O)c3ccccc3)C2)N=C1c1ccncc1 (stereo not drawn) | inactive |
| O=C(Nc1ccccc1F)N1CC2CCC(C1)N2Cc1ccc(-c2cc(F)cc(F)c2)cc1 | inconclusive: 50.1 µM [inhibitor, partial curve, poor fit] |
| COCC1CN(C(C)=O)CC12CCN(C(=O)c1cncc(C)c1)CC2 (stereo not drawn) | inactive |
| CC(C)c1noc(-c2cn(C3CCN(C(=O)c4ccc(F)cc4Cl)C3)nn2)n1 (stereo not drawn) | inconclusive: 10 µM [inhibitor, full curve, poor fit] |
| COc1ccc(CNC(=O)C2CCN(c3nccc(Nc4ccccc4Cl)n3)CC2)cc1 | active: 35.5 µM |
| CN(Cc1cccc(C(F)(F)F)c1)C1CCOc2ccccc21 (stereo not drawn) | inconclusive: 89.1 µM [inhibitor, partial curve, poor fit] |
| COc1ccccc1-c1cnc(Nc2ccccc2)c2c1CCO2 | inconclusive: 89.1 µM [inhibitor, partial curve, poor fit] |
| COCCCNC(=O)c1nc2sccn2c1-c1ccc(C(F)(F)F)cc1 | inconclusive: 50.1 µM [inhibitor, partial curve, poor fit] |
| C[S+](=O)([O-])c1ccc(-c2nccc3c(=O)cc(-c4cccnc4)oc23)cc1 | active: 25.1 µM |
| O=C(NCc1cccc(F)c1)C1CCN(C(=O)c2ncn3c2COC(c2ccc(F)cc2)C3)CC1 (stereo not drawn) | inactive |
| Cc1ccc(CN2CCC3(CC2)COCCN3C(=O)OCc2ccccc2)o1 | active: 44.7 µM |
| COc1ccc(Cn2c(=O)c(C(=O)N3CCN(C(=O)Nc4ccccc4)CC3)nc3cccnc32)cc1 | inactive |
| Cn1c(=O)n([C@H]2CCN(C(=O)c3ccco3)C2)c2ncccc21 | inactive |
| CCn1cc(C(=O)N2CCC3(CC2)CN(Cc2ccccc2)CC3CO)cn1 (stereo not drawn) | inactive |
| N#Cc1cccc(CN2CCc3nc(C(=O)NCCOc4ccccc4)oc3CC2)c1 | inconclusive: 100 µM [inhibitor, partial curve, poor fit] |
| COCCCNC(=O)c1cc(-c2ccc(F)cc2)c2nncn2n1 | inconclusive: 44.7 µM [inhibitor, partial curve, poor fit] |
| CN1CCN(C(=O)c2cc(COc3ccc(F)cc3F)on2)CC1c1ccccc1 (stereo not drawn) | inconclusive: 50.1 µM [inhibitor, partial curve, poor fit] |
| O=C(C1CC1)N(C1CCOCC1)C1CCN(S(=O)(=O)c2ccc3c(c2)CCCC3)CC1 | inconclusive: 44.7 µM [inhibitor, partial curve, poor fit] |
